Experimental findings from ChEMBL document CHEMBL4888484, “Replenishing the malaria drug discovery pipeline: Screening and hit evaluation of the MMV Hit Generation Library 1 (HGL1) against asexual blood stage Plasmodium falciparum ,using a nano luciferase reporter read-out” (2022) are described below.

Hit rate of the full screen: of about 150,000 compounds, about 540 (0.36%) showed an effect of 50% or more. Some of the results follow.

The experiment has as its system Plasmodium falciparum. Nature of the experiment: Primary screen in NF54 nanoGlo assay, in single point, at 2uM, 72h; a lower Z score goes with more inhibition. Type of experiment: functional, Erythrocyte. As to conditions: timepoint 72 hour.
For the compound `O=C1O[C@@H]2C[C@H]3C[C@@H]2[C@@H]1[C@H]3C(=O)N1CCCc2ccccc21`, the “% Inhibition” value is listed as 6% and the Z score is recorded as -0.74.

`Cc1cc(-c2cccc(C(=O)NCCc3nnc(C)s3)c2)cc(C)n1`: the “% Inhibition” value turned out to be 6% and the Z score is given as -0.8.

Consider `COc1ccc(N2C(=O)N[C@@H](CCC(=O)N3CCN(C)CC3)C2=O)cc1`, for which the “% Inhibition” value was -11% and the Z score is 1.46.

For the compound `COc1ccc(NC(N)=NCCCn2cc(C)cn2)cc1`, the “% Inhibition” value was 2% and the Z score is on record as -0.41.

For the compound `CCN1CCN(C(=O)CCN(CC(C)C)c2nc(-c3ccccc3Cl)nc3ccccc23)CC1`, the “% Inhibition” value is given as -2% and the Z score came out at 0.39.

For the compound `O=C(CO)N1CCC[C@H](S(=O)(=O)N2CCc3ccccc32)C1`, the “% Inhibition” value is on record as -17% and the Z score is 1.67.

Consider `C=C[C@H]1CCN(C(=O)NCCc2c[nH]cn2)C1`, for which the “% Inhibition” value was -6% and the Z score is given as 1.22.

As to `Cc1ccc(CNC(=O)N2CC(N(Cc3cccnc3)S(C)(=O)=O)C2)cc1`, the “% Inhibition” value was -1% and the Z score was found to be 0.2.

Turning to `C[C@H](NS(=O)(=O)CCC1CCOCC1)c1ccc(Cl)cn1`, the “% Inhibition” value is listed as 6% and the Z score is on record as -1.15.

For `N#Cc1ccc(OCCN2C(=O)NC(C3CC3)(C3CC3)C2=O)cc1`, the “% Inhibition” value worked out at 2% and the Z score is listed as -0.21.

On to `CCOC1CC(NC(=O)Cc2ccc(Cl)s2)C12CCOCC2` (centres undefined), for which the “% Inhibition” value was -20% and the Z score came to 2.19.

Regarding `COc1ccc(/C=C/c2sc3ccc(O)cc3[n+]2C)cc1`, the “% Inhibition” value is -15% and the Z score was 2.06.

Regarding `Cn1nc(-c2ccccn2)cc1NC(=O)N1C[C@@H]2[C@H](C1)[C@H]1CC[C@@H]2O1`, the “% Inhibition” value is -7% and the Z score was 1.31.

Consider `CC(NC(=O)CCc1cccs1)C1CCCO1` (centres undefined), for which the “% Inhibition” value is -5% and the Z score is 0.53.

For `Cn1cncc1CCC(=O)N1CCc2c(Cl)cc(Cl)cc2C1`, the “% Inhibition” value is on record as -10% and the Z score stood at 0.83.

`O=C(c1ccon1)N1CCC[C@H](c2cc(F)ccc2F)C1`: the “% Inhibition” value was found to be 2% and the Z score is on record as -0.21.

Take `Cc1nc2sc(C(=O)Nc3ccc4ccccc4c3)c(N)c2c(C)c1C`: the “% Inhibition” value is 32% and the Z score was -0.84.

Turning to `Cc1ccc(OCCNc2cc([C@H]3C[C@H](N)C3)nc(C3CC3)n2)cc1C`, the “% Inhibition” value is 35% and the Z score is recorded as -2.3.

As for `CC(=O)N1CCC(C(=O)N(Cc2ccco2)c2ccc(C)cc2)CC1`, the “% Inhibition” value is listed as -9% and the Z score is given as 1.16.

Regarding `O=S(=O)(c1cccc2nsnc12)N1CC(n2cnnc2[C@@H]2CCCO2)C1`, the “% Inhibition” value is listed as -13% and the Z score was 1.68.

For `CC1CCN(CN2C(=O)C3(OCC=CCO3)c3ccccc32)CC1`, the “% Inhibition” value is recorded as -10% and the Z score was 1.17.

Turning to `COCCn1c(CNC(=O)c2ccccc2OC)nc2cccnc21`, the “% Inhibition” value is -3% and the Z score was found to be 0.39.

As for `O=C(Nc1cnccc1O)c1ccc(N2CC=CC2)cc1`, the “% Inhibition” value is -14% and the Z score is listed as 2.53.

For `COc1cc(NC(=O)[C@@H]2CCCN2S(C)(=O)=O)cc(-n2cnnn2)c1`, the “% Inhibition” value was found to be 9% and the Z score is recorded as -1.31.

As to `CCOc1ccc(NC(=O)[C@H]2CCCN(C(=O)C(C)C)C2)cc1S(=O)(=O)N1CCOCC1`, the “% Inhibition” value stood at 0% and the Z score is on record as -0.01.

For the compound `CCO[C@@H](C)c1noc(COc2cccnc2C)n1`, the “% Inhibition” value is on record as -4% and the Z score was found to be 0.58.

As for `CC(C)[C@H](O)C(=O)N1CCC(CNC(=O)CC2CC2)CC1`, the “% Inhibition” value is reported as -7% and the Z score amounted to 1.12.

On to `O=C(c1ccc(Cl)c(Cl)c1)N1CCC(Cc2ccc3c(c2)OCO3)CC1`, for which the “% Inhibition” value was -10% and the Z score is recorded as 1.36.

On to `COc1ccccc1[C@@H]1CNC(=O)c2nc(C3=CCCCC3)[nH]c2C1`, for which the “% Inhibition” value came to 0% and the Z score is on record as -0.07.

With `COc1c(C)cnc(CN2CCC(N(C)C(=O)N[C@@H](C)CC3CC3)CC2)c1C`, the “% Inhibition” value is given as -9% and the Z score stood at 1.32.

With `CCn1c(C)cc(C)c(C(=O)Nc2cc(-c3nnc(C)o3)ccc2OC)c1=O`, the “% Inhibition” value is -7% and the Z score is recorded as 1.15.

As for `CCC(NC(C)c1ccc(C)s1)C(=O)N1CCOCC1` (centres undefined), the “% Inhibition” value is -5% and the Z score amounted to 1.

Regarding `CC1CCN(CC2CCCN(C(=O)C3CCCc4ccccc43)C2)CC1` (centres undefined), the “% Inhibition” value is given as -12% and the Z score was found to be 1.66.

For the compound `CC(=O)N1CCCN(C(=O)[C@@H]2COc3ccccc3O2)CC1`, the “% Inhibition” value was -7% and the Z score is on record as 0.91.

Regarding `CCc1cc(C(=O)N[C@@H](C)c2ccccc2)c2c(C3CC3)nn(Cc3ccccc3)c2n1`, the “% Inhibition” value is given as 39% and the Z score is -5.23.

In the case of `C[C@H](CCC(=O)N1CCc2ccccc2C1)[C@H]1CC[C@H]2[C@@H]3[C@H](O)C[C@@H]4C[C@H](O)CC[C@]4(C)[C@H]3C[C@H](O)[C@]12C`, the “% Inhibition” value is -8% and the Z score came out at 1.05.

In the case of `CCc1nocc1CN(C)C(=O)c1onc2c1CCCC2`, the “% Inhibition” value is -11% and the Z score worked out at 1.55.

Take `CC(C)(Oc1ccc([C@H]2CC2(Cl)Cl)cc1)C(=O)Nc1nnc(C2CC2)s1`: the “% Inhibition” value was -1% and the Z score came to 0.12.

Consider `CN(CCn1cc(C(=O)NCc2ccncc2)nn1)Cc1cc2c(cc1Cl)OCO2`, for which the “% Inhibition” value is 1% and the Z score is -0.15.

On to `Cc1[nH]c2ccccc2c1C1C(CC(=O)N(Cc2ccccc2)C2(C(=O)Nc3ccc(N(C)C)cc3)CCCC2)C1(C)C` (centres undefined), for which the “% Inhibition” value is given as -32% and the Z score is 3.72.

As to `Cc1nc2c(c(N3CCCC3)n1)CN(C(=O)Nc1cccc3ccccc13)CC2`, the “% Inhibition” value was -2% and the Z score amounted to 0.22.

Turning to `Cn1c(CN2CCN(C(=O)C(C)(C)C)CC2(C)C)nnc1C1CC1`, the “% Inhibition” value is recorded as -8% and the Z score was 1.36.

Consider `Cc1ccc(N(C)S(=O)(=O)c2ccc(-c3ccc(=O)[nH]n3)o2)cc1`, for which the “% Inhibition” value is listed as -6% and the Z score turned out to be 0.6.

Consider `CC(C)(C)c1ncc(C(=O)N2CCC[C@@H]2C(=O)O)s1`, for which the “% Inhibition” value amounted to 2% and the Z score is -0.25.

For `O=C(NCC#C[C@@H]1CCCCO1)c1cccnc1C(F)F`, the “% Inhibition” value was determined as 2% and the Z score is recorded as -0.25.

Regarding `O=C(c1ccc2ccccc2n1)N1CCN(S(=O)(=O)c2ccccc2)CC1`, the “% Inhibition” value is reported as -3% and the Z score came out at 0.36.

Take `Cc1ccc(CC(=O)N2CCC3(CCN(C)CC3)C2)cc1`: the “% Inhibition” value is -7% and the Z score was 0.88.

For the compound `CC[C@@H](CO)NC(=O)NC1CCCC(OC)C1` (some centres undefined), the “% Inhibition” value was -9% and the Z score is given as 0.9.

Consider `c1csc(-c2cc(CN3CCOC[C@H]3c3nc[nH]n3)no2)c1`, for which the “% Inhibition” value is reported as 1% and the Z score is reported as -0.11.

`Cc1cnn(C)c1NC(=O)N(C)Cc1ncc(Br)cn1`: the “% Inhibition” value was 0% and the Z score is recorded as -0.04.

In the case of `Cc1nn(C)c(C)c1CNC(=O)c1ccc(-c2nc(CN3CCc4ccccc43)c(C)o2)cc1`, the “% Inhibition” value is reported as -2% and the Z score turned out to be 0.35.

Take `Cc1ccc(S(=O)(=O)Cc2nc(-c3ccc(C(=O)NCc4ccc(C)o4)cc3)oc2C)cc1`: the “% Inhibition” value came to 34% and the Z score was -4.92.

The % Inhibition is the relative decrease from the control value, in per cent.
